Measured values from the supplement of paper PMC11246515.

Assay: total protein half-life in vivo (active degradation + dilution); higher = more stable protein

MKDIDTLISNNALWSKMLVEEDPGFFEKLAQAQKPRFLWIGCSDSRVPAERLTGLEPGELFVHRNVANLVIHTDLNCLSVVQYAVDVLEVEHIIICGHYGCGGVQAAVENPELGLINNWLLHIRDIWFKHSSLLGEMPQERRLDTLCELNVMEQVYNLGHSTIMQSAWKRGQKVTIHGWAYGIHDGLLRDLDVTATNRETLEQRYRHGISNLKLKHANHK
growth: N-lim chemostat, doubling time 6 h
Settings	total protein half-life in vivo [h]
E. coli NCM3722 delta-clpP	6.43
E. coli NCM3722 delta-clpP delta-lon delta-hslV	5.61
E. coli NCM3722 delta-hslV	6.84
E. coli NCM3722 delta-lon	5.9
E. coli NCM3722 delta-smpB	5.47

total protein half-life in vivo [h]
Settings	wild type E. coli NCM3722, growth: C-lim chemostat	wild type E. coli NCM3722, growth: N-lim chemostat	wild type E. coli NCM3722, growth: P-lim chemostat
doubling time 3 h	3	–	–
doubling time 6 h	5.98	5.417	6.16
doubling time 12 h	8.84	12.6	13.3
